Reference: PubChem BioAssay AID686978 (National Center for Advancing Translational Sciences (NCATS), 2013)
Several values for one entry are separate records, joined by “and”; a condition that tells them apart may be missing. Equal entries are not always repeated. In all, about 420,000 compounds went through this assay and about 64,000 (15%) were called active. Inconclusive results, whose numbers are uncertain, are shown with a selection of clear calls. Calls come from the whole dose curve; as a rule, active = well fitted inhibition curve with a large enough effect; inconclusive = small, poorly fitted or top-dose-only effect; inactive = flat fitted curve, though single readings scatter. A potency beside an inconclusive call is a rough fit, not a confirmed value.

experiment: qHTS for Inhibitors of human tyrosyl-DNA phosphodiesterase 1 (TDP1): qHTS in cells in absence of CPT; details: DT40 Tdp1-/- hTDP1 cells, no CPT, ATP luminescence, 48 h; activity change, negative = growth inhibition: at 46.2 µM (top of the series) unless noted; note: nearly all actives have a fitted effect of over 55% in size
Procedure, shortened: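 Seeded 400 DT40-hTDP1 cells/well (vehicle DMSO, no 20 nM CPT); pinned compounds; ≥48 hr at 37 °C; CellTiter-Glo luminescence as viability measure.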
% is set by controls: 0 for no effect and ±100 for the full control effect; potency is the fitted concentration of half-maximal effect; tags give direction and shape of the fitted curve.

Row | Compound | Potency | activity change, negative = growth inhibition
1 | COc1ccc(C(=O)C2CCCN(Cc3cnc(N4CCCC4)s3)C2)cc1OC (configuration not stated) | inconclusive: 18.4 µM [inhibitor, single point] | 
2 | CC(CC(=O)O)CC(=O)NNC(=O)c1cccc(Br)c1 (configuration not stated) |  | inactive: -3.65%
3 | CC(C)c1ccc(C2CC(=O)N3CN(C4CCCCC4)CSC3=C2C#N)cc1 (configuration not stated) | inconclusive: 16.4 µM [inhibitor, partial curve, poor fit] | 
4 | NS(=O)(=O)c1cccc(NC(=O)COC(=O)Cc2ccc(S(=O)(=O)N3CCCCC3)s2)c1 |  | inactive: 24.6%
5 | CC(C)Oc1cccc(C(=O)Nc2ccccc2N2CCOCC2)c1 | inconclusive: 25.9 µM [inhibitor, single point] | 
6 | CC1CN(CCCCOc2ccc(F)cc2)CC(C)O1 (configuration not stated) |  | inactive: -2.87%
7 | COc1ccc(C(=O)N/N=C(/C)c2cccc(NC(=O)c3ccccc3F)c2)cc1 | inconclusive: 29.1 µM [inhibitor, single point] | 
8 | COc1ccccc1C(=O)COC(=O)c1ccccc1O |  | inactive: -10.3%
9 | Cn1ccc2cc(S(=O)(=O)N3CCCC(C(=O)NCc4ccccc4F)C3)ccc21 (configuration not stated) | inconclusive: 0.0046 µM [inhibitor, full curve, poor fit] | 
10 | CC1CCCC(NC(=O)CCC(=O)N2CCOc3ccccc32)C1C (configuration not stated) | inconclusive: 29.1 µM [inhibitor, single point] | 
11 | CCOC(=O)c1ccc(NC(=O)Nc2ccc(Cl)cn2)cc1 |  | inactive: -18.2%
12 | COc1ccccc1N1CCN(C(=O)c2nn(C)c3c2CS(=O)(=O)c2ccccc2-3)CC1 | inconclusive: 20.6 µM [inhibitor, single point] | 
13 | O=C(CN1C(=O)NC2(CCCCC2)C1=O)Nc1nc2c(F)cc(F)cc2s1 | inconclusive: 29.1 µM [inhibitor, single point] | 
14 | CCn1c(SCC(=O)NNC(=O)Cc2ccccc2)nnc1-c1ccccc1 |  | inactive: -1.02%
15 | COc1ccc(CN(C)CC(=O)Nc2ccccc2-c2ccccc2)c(OC)c1 | active: 18.4 µM | 
16 | Cc1nnc(NC(=O)c2ccc(S(=O)(=O)N3CCCCCC3)cc2)o1 | inconclusive: 32.6 µM [inhibitor, single point] | 
17 | COc1ccccc1N(C)S(=O)(=O)c1ccc(C(=O)NC(C)c2ccccc2)cc1 (configuration not stated) | inconclusive: 29.1 µM [inhibitor, single point] | 
18 | CCOC(=O)CSC1=NC(=O)/C(=C/c2ccc(OC)cc2)S1 | active: 1.3 µM | 
19 | COc1cccc(CN2CCN(c3nc4nonc4nc3NC3CC3)CC2)c1 | inconclusive: 23.1 µM [inhibitor, single point] | 
20 | COCCNc1ncncc1-c1ccccc1OC |  | inactive: 4.47%
21 | COc1cc(C(=O)N/N=C(\C)c2ccc3c(c2)OCO3)cc(OC)c1OC | active: 1.64 µM | 
22 | Cn1c(=O)c2c(nc(NCc3ccco3)n2CCc2ccccc2)n(C)c1=O | active: 6.51 µM | 
23 | COc1cc(CCCN2C(N)=NC[C@@H]2c2ccccc2)cc(OC)c1OC | inconclusive: 23.1 µM [inhibitor, partial curve, poor fit] | 
24 | CCOC(=O)CSc1nc2cc(C)cc(C)c2cc1C#N | inconclusive: 31.6 µM [inhibitor, single point] | 

Row | Compound | Potency | activity change, negative = growth inhibition
25 | CCCc1cc(=O)[nH]c(Nc2cc(Cl)cc(Cl)c2)n1 | active: 16.4 µM | 
26 | CN1CCN(CCNC(=O)c2cc3c(=O)n(C)c4ccccc4c3n2C)CC1 |  | inactive: -16.3%
27 | O=C(Nc1ccc(S(=O)(=O)N2CCCC2)cc1)C1CC(=O)N(c2ccc(F)cc2)C1 (configuration not stated) | inconclusive: 32.6 µM [inhibitor, single point] | 
28 | CC(CCc1ccccc1)NC(=O)C1CCN(c2nnc(-n3cccc3)s2)CC1 (configuration not stated) | inconclusive: 23.1 µM [inhibitor, single point] | 
29 | O=C(CSc1nc(C2CC2)nc2ccccc12)Nc1cccc(O)c1 |  | inactive: -15.2%
30 | COc1ccc(OCCNC(=O)C2(C)CCN2Cc2ccc(SC)cc2)cc1 (configuration not stated) | active: 16.4 µM | 
31 | CCN(CC)c1ccc(CN(C(=O)c2cc(=O)c3ccccc3o2)C2CCS(=O)(=O)C2)cc1 (configuration not stated) | inconclusive: 14.6 µM [inhibitor, partial curve] | 
32 | O=C(O)C1C2CCCCC2=C2CCCCC2C1C(=O)c1ccccc1 (configuration not stated) |  | inactive: 24.5%
33 | Cc1nn(Cc2ccc(F)cc2)c(C)c1NC(=O)c1noc2c1CCc1ccccc1-2 | active: 18.4 µM and active: 16.4 µM | 
34 | CCn1cc2nc(SCc3cc(C)ccc3C)n(Cc3ccc(Cl)cc3)c(=O)c2n1 | inconclusive: 29.1 µM [inhibitor, single point] | 
35 | CCn1c(CSc2nc3ccccc3[nH]2)n[nH]c1=S |  | inactive: -1.04%
36 | Cc1ccc(C(=O)C2C(=O)c3ccccc3C2=O)cc1 |  | inactive: -23.1%
37 | O=c1[nH]nc(CNc2ccc(C(F)(F)F)cc2)c2ccccc12 | active: 14.6 µM | 
38 | CCOc1ccc2oc(C(=O)OCC(=O)N3CCCC(C)C3)c(C)c2c1 (configuration not stated) | inconclusive: 29.1 µM [inhibitor, single point] | 
39 | COc1cccc(CNC(=O)CN2C(=O)COc3ccc(S(=O)(=O)N4CCCCC4)cc32)c1 | inactive and inconclusive: 580 nM [inhibitor, single point] | 
40 | O=C(CSc1nnc(-c2cccs2)n1-c1ccccc1)N1CCCC1 | inconclusive: 18.4 µM [inhibitor, single point] | 
41 | COC(=O)Cn1c(=NC(=O)c2ccc(Cl)s2)sc2cc(F)ccc21 | inconclusive: 2.91 µM [inhibitor, full curve] | 
42 | O=C(CSc1nnc(-c2ccncc2)n1Cc1ccccc1)NC1CCCc2ccccc21 (configuration not stated) | inconclusive: 16.4 µM [inhibitor, partial curve] | 
43 | CCOC(=O)c1ccc(NC(=O)Cc2noc3ccc(C)cc23)cc1 | inconclusive: 25.9 µM [inhibitor, single point] | 
44 | COC(=O)Cn1c(C)nc([N+](=O)[O-])c1Br | inconclusive: 23.1 µM [inhibitor, single point] | 
45 | Nc1ccc2nc(-c3ccc(N)c(Cl)c3)[nH]c2c1 | active: 8.2 µM | 
46 | Cc1nc2nc(Cc3ccccc3)nn2c(C)c1Cl |  | inactive: 9.6%
47 | O=C(C1CCN(S(=O)(=O)c2cccs2)CC1)N1CCN(c2ccccc2F)CC1 |  | inconclusive: -30% [inhibitor]
